{"source": "PubChem BioAssay (NCATS)", "key": {"Furin (Homo sapiens)": {"target": "Furin (Homo sapiens) (UniProt P09958)", "sequence (P09958 whole entry, looked up)": "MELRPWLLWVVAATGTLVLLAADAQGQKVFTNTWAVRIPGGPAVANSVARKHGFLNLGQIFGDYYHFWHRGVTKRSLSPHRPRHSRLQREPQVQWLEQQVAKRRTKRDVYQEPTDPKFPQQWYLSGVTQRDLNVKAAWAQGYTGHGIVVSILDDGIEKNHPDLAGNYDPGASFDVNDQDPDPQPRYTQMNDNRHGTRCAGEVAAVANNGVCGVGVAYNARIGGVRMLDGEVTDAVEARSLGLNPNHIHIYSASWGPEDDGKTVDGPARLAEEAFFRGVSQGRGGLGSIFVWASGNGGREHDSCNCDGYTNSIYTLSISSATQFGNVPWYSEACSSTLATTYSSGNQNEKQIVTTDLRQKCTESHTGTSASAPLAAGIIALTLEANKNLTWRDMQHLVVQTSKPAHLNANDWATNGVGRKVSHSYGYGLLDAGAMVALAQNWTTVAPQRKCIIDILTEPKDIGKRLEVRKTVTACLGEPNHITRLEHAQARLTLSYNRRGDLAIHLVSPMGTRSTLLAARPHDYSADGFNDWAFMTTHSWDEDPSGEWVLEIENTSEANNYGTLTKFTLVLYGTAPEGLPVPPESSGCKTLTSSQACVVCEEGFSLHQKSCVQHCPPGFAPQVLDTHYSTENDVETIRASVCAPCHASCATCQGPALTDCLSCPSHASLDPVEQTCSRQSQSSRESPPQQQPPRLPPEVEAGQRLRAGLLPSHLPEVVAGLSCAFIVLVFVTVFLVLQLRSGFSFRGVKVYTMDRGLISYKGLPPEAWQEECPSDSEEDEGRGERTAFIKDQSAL", "assay": "Furin counterscreen qHTS for Zika virus inhibitors (AID 1347149); also: nearly all actives have a fitted effect of over 70% in size; also: potency is read from the fitted curve at half-maximal effect;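 as to activity change, negative = inhibition: purified recombinant full-length human furin enzyme at 5 nM; fluorescence gain from furin cutting a BOC-RVRR-AMC peptide substrate over 15 min; top concentration of the series differs between compounds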", "conditions": "furin enzymatic counterscreen, fluorogenic substrate; activity change, negative = inhibition: at 114 µM (top of the series)", "procedure,_shortened": "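Fluorogenic cleavage of BOC-RVRR-AMC (2 microM final, Km ~15 µM) was monitored (ex 340, em 450 nm) at 37C after 15 min RT preincubation of 5 nM furin with compounds in HEPES pH 7.0 buffer with CaCl2 and Triton X-100. Percent inhibition was fitted to a 4-parameter Hill curve.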"}, "[1]": {"assay": "Confirmatory screen GU Rhodamine qHTS for Zika virus inhibitors qHTS (AID 1347157); also: nearly all actives have a fitted effect of over 70% in size; also: potency is read from the fitted curve at half-maximal effect", "procedure,_shortened": "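Buffer 10 mM Tris-HCl pH 8.0, 0.01% Tween 20. Unlinked protease 25 nM; compound preincubation 15 min, RT, protected from light. Substrate Rhod110, 1.5 microM; ~15% conversion in 15 min.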"}, "[2]": {"tested_on": "Zika virus NS2B-NS3 protease (linked)", "assay": "384 well plate NINDS AMC confirmatory qHTS for Zika virus inhibitors (AID 1347163); also: nearly all actives have a fitted effect of over 50% in size; also: potency is read from the fitted curve at half-maximal effect;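 as to activity change, negative = inhibition: linked protease at 5 30 or 60 nM final depending on run; fluorescence of AMC released from Ac-VKTGKR-AMC peptide cleaved by the protease; top concentration of the series differs between compounds; 0% = no-inhibitor control and -100% = no-enzyme control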", "procedure,_shortened": "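Linked protease 5/30/60 nM final; cpds up to 1 mM final, ~15 min preinc. Substrate Ac-VKTGKR-AMC 30 microM final. RT, dark, 25 min; FI ex 355/em 460; normalized to no-enzyme/no-inhibitor ctrls.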"}, "[3]": {"assay": "Tertiary RLuc qRT-PCR qHTS assay for Zika virus inhibitors (AID 1347169); also: nearly all actives have a fitted effect of over 55% in size; also: potency is read from the fitted curve at half-maximal effect; as to activity change, negative = inhibition: top concentration of the series differs between compounds; % is scaled to controls: 0 for no effect and ±100 for the full control effect", "procedure,_shortened": "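Vero, 1,000 cells/well, o/n 37 C; cpd pinned in DMSO; ZIKV-RLuc Cambodian, MOI 1-2, 48-72 h 37 C; live-cell RLuc substrate, lum read at 1-1.5 h.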"}, "[4]": {"target": "Rap guanine nucleotide exchange factor 4 (Homo sapiens) (UniProt Q8WZA2)", "sequence (Q8WZA2 whole entry, looked up)": "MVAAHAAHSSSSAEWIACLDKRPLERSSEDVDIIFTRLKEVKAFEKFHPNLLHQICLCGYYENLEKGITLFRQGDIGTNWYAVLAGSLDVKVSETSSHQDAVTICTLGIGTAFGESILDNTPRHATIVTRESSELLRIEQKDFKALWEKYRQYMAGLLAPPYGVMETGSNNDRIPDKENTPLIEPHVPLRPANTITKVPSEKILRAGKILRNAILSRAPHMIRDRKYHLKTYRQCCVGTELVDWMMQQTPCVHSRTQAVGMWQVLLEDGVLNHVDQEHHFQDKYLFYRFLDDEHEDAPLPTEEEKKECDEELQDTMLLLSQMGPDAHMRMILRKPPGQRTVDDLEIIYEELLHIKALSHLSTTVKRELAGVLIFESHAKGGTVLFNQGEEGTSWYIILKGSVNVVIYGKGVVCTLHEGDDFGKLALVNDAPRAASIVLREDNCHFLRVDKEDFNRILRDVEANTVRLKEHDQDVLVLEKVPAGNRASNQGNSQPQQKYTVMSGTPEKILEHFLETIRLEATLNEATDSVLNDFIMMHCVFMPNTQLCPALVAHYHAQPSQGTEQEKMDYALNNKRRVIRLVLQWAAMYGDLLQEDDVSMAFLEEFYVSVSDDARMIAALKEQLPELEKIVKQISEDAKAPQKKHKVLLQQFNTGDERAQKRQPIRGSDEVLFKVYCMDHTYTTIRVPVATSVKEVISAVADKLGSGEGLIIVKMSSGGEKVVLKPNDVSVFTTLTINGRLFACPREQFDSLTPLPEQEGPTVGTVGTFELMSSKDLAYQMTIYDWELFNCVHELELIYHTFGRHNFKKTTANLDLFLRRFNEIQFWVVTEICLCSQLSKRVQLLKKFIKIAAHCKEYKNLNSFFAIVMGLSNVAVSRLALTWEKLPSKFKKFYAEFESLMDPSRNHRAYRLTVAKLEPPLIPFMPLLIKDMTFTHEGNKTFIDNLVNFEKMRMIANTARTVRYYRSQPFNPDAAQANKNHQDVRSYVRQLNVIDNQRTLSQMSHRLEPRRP", "assay": "Confirmatory qHTS for agonist of cAMP-regulated guanine nucleotide exchange factor 4 (EPAC2) (AID 1645884);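 also: nucleotide exchange releases bodipy-GDP from Rap1 and this lowers its fluorescence; % is scaled to controls: 0 for no effect and ±100 for the full control effect; nearly all actives have a fitted effect of over 65% in size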", "conditions": "EPAC2 GEF activity, Rap1B-BODIPY-GDP fluorescence; activation: at 154 µM (top of the series), percent relative to cAMP agonist control"}, "[5]": {"target": "Rap guanine nucleotide exchange factor 4 (Homo sapiens) (UniProt Q8WZA2)", "assay": "Confirmatory qHTS for antagonist of cAMP-regulated guanine nucleotide exchange factor 4 (EPAC2) (AID 1645885); also: % is scaled to controls: 0 for no effect and ±100 for the full control effect; nearly all actives have a fitted effect of over 25% in size", "conditions": "activity change, negative = inhibition: at 12.7 µM (top of the series) unless noted"}, "[6]": {"target": "Rap guanine nucleotide exchange factor 3 (Homo sapiens) (UniProt O95398)", "assay": "Counterscreen qHTS for agonist of cAMP-regulated guanine nucleotide exchange factor 3 (EPAC1) (AID 1645889); also: % of control where 0% means no effect; nearly all actives have a fitted effect of over 40% in size", "conditions": "EPAC1 Rap1B-BODIPY-GDP exchange, fluorescence; activation: at 154 µM (top of the series) unless noted", "procedure,_shortened": "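Rap1B–BODIPY-GDP (250 nM) with 50 uM GDP; compounds pin-transferred to 9.74 nM–152 uM final (activator) or from 7.32 nM upwards (inhibitor). Fluorescence Ex/Em 480/540 nm read at 5 and 30 min, then after adding cAMP or buffer, at room temperature.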"}, "[7]": {"tested_on": "Zika virus NS2B-NS3 protease (linked construct)", "assay": "384 well plate NINDS Rhodamine confirmatory qHTS for Zika virus inhibitors (AID 1347164); also: nearly all actives have a fitted effect of over 65% in size; also: potency is read from the fitted curve at half-maximal effect; as to activity change, negative = inhibition: top concentration of the series differs between compounds", "procedure,_shortened": "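Enzyme (final 5/30/60 nM) + cpd (DMSO), ~15 min; add Ac-LKRR-Rd 10 microM final; 25 min RT, dark; FI ex 485/em 538; normalized to no-enzyme, no-inhibitor ctrls; aprotinin intraplate ctrl.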"}, "[8]": {"assay": "ZIKV-mCherry secondary qHTS for Zika virus inhibitors (AID 1347158); also: potency is read from the fitted curve at half-maximal effect; as to activity change, negative = inhibition: top concentration of the series differs between compounds", "conditions": "Vero cells, ZIKV-mCherry infection imaging, 48-72 h; activity change, negative = inhibition: at 49.2 µM (top of the series)", "procedure,_shortened": "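Vero cells, 5,000/well, plated overnight at 37 °C, then compound added and infected with recombinant ZIKV-mCherry at MOI 1 for 48-72 h. PFA-fixed, Hoechst nuclear stain, high-content imaging; cells with mCherry intensity above 450 RFU scored infected, reported as percent infection.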"}, "[9]": {"assay": "Confirmatory screen NINDS Rhodamine qHTS for Zika virus inhibitors (AID 1347161); also: nearly all actives have a fitted effect of over 60% in size; also: potency is read from the fitted curve at half-maximal effect;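 as to activity change, negative = inhibition: purified Zika NS2B-NS3 protease with linked NS2B cofactor domain and Rhodamine110 peptide substrate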", "procedure,_shortened": "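Percent inhibition, normalized to uninhibited and enzyme-free controls, is fitted to a 4-parameter Hill equation. Fluorescence change comes from a 15-min cleavage of 1.5 microM bis-peptide Rhodamine110 substrate by 25 nM linked NS2B-NS3 at room temperature.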"}, "[10]": {"assay": "Vero cells viability qHTS for Zika virus inhibitors (AID 1347167); also: potency is read from the fitted curve at half-maximal effect", "procedure,_shortened": "(§1)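 Cells seeded at 2.5 x 10^5 cells/mL in DMEM with 4% FBS and attached overnight at 37 degrees C, then exposed to compound for 24 to 48 hours. Viability read as ATP content by CellTiter Glo luminescence.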"}, "[11]": {"assay": "HepG2 cells viability qHTS for Zika virus inhibitors (AID 1347168)", "procedure,_shortened": "as §1"}}, "note": "Inconclusive results, whose numbers are uncertain, are shown with a selection of clear calls. For some assays here: No potency is given beside an inconclusive call; the fits are too rough. Calls of active or inactive are those of the source. Calls follow the shape of the dose curve; as a rule, active = well fitted curve in the direction sought with a large enough effect; inconclusive = small, poorly fitted or top-dose-only effect, or another doubt; inactive = no such curve, though single readings can be large; an effect the other way counts as inactive or inconclusive. Tags tell the direction and shape of the fitted curve.", "data": [{"smiles": "CCCCCCc1cc2cc(-c3cn4c(n3)sc3cc(OC)ccc34)c(=O)oc2cc1O", "values": [{"measurement": "Potency", "setting": "Furin (Homo sapiens)", "value": "inactive"}, {"measurement": "Potency", "setting": "[1]", "value": "inconclusive [inhibitor, full curve]"}, {"measurement": "Potency", "setting": "[2]", "value": "inactive"}, {"measurement": "activity change, negative = inhibition", "setting": "[3]", "value": "inactive: 88.8% [at 1.74 µM]"}, {"measurement": "Potency", "setting": "[4]", "value": "inactive"}, {"measurement": "Potency", "setting": "[5]", "value": "inactive"}, {"measurement": "Potency", "setting": "[6]", "value": "inactive"}]}, {"smiles": "CCOC(=O)c1cccc(NC(=O)CSc2ncc3c(n2)-c2ccc(Cl)cc2N(Cc2ccccc2)S3(=O)=O)c1", "values": [{"measurement": "Potency", "setting": "Furin (Homo sapiens)", "value": "inactive"}, {"measurement": "Potency", "setting": "[1]", "value": "inconclusive [inhibitor, partial curve]"}, {"measurement": "Potency", "setting": "[2]", "value": "inactive"}, {"measurement": "Potency", "setting": "[7]", "value": "inconclusive [inhibitor, full curve, poor fit]"}, {"measurement": "Potency", "setting": "[3]", "value": "inconclusive [inhibitor, partial curve, poor fit]"}]}, {"smiles": "O=C(OCc1cc(=O)n2nc(C3CC3)sc2n1)c1ccc(NC(=O)c2ccccc2Cl)cc1", "values": [{"measurement": "Potency", "setting": "Furin (Homo sapiens)", "value": "inconclusive [inhibitor, single point]"}, {"measurement": "Potency", "setting": "[8]", "value": "inconclusive [inhibitor, full curve]"}, {"measurement": "Potency", "setting": "[9]", "value": "inconclusive [inhibitor, partial curve]"}, {"measurement": "Potency", "setting": "[2]", "value": "inactive"}]}, {"smiles": "Cc1oc2c(cc(NS(=O)(=O)c3ccc(Cl)cc3)c3ccccc32)c1C(=O)OCc1ccccc1", "values": [{"measurement": "Potency", "setting": "Furin (Homo sapiens)", "value": "inactive"}, {"measurement": "Potency", "setting": "[8]", "value": "inactive"}, {"measurement": "Potency", "setting": "[2]", "value": "inconclusive [inhibitor, single point]"}, {"measurement": "Potency", "setting": "[7]", "value": "inconclusive [inhibitor, partial curve]"}, {"measurement": "Potency", "setting": "[3]", "value": "inconclusive [inhibitor, partial curve, poor fit]"}]}, {"smiles": "O=C(O)c1ccc2c(ccc3nn(-c4ccc(/C=C/c5ccc(-n6nc7ccc8cc(C(=O)O)ccc8c7n6)cc5[S+](=O)([O-])[O-])c([S+](=O)([O-])[O-])c4)nc32)c1", "values": [{"measurement": "Potency", "setting": "Furin (Homo sapiens)", "value": "inactive"}, {"measurement": "Potency", "setting": "[8]", "value": "active: 4.47 µM"}, {"measurement": "Potency", "setting": "[9]", "value": "active: 6.31 µM"}, {"measurement": "Potency", "setting": "[2]", "value": "inactive"}, {"measurement": "activity change, negative = inhibition", "setting": "[3]", "value": "inactive: -18.6% [at 1.74 µM]"}]}, {"smiles": "CCOC(=O)c1ccc(CN(Cc2ccc(Br)cc2)S(=O)(=O)c2cccc(C(F)(F)F)c2)cc1", "values": [{"measurement": "Potency", "setting": "Furin (Homo sapiens)", "value": "inconclusive [inhibitor, partial curve, poor fit]"}, {"measurement": "Potency", "setting": "[1]", "value": "inconclusive [inhibitor, partial curve, poor fit]"}, {"measurement": "Potency", "setting": "[9]", "value": "inactive"}, {"measurement": "Potency", "setting": "[3]", "value": "inconclusive [inhibitor, partial curve, poor fit]"}]}, {"smiles": "COC(=O)c1ccc(NC(=O)CSc2ncc3c(n2)-c2cc(Cl)ccc2N(Cc2ccccc2)S3(=O)=O)cc1", "values": [{"measurement": "Potency", "setting": "Furin (Homo sapiens)", "value": "active: 83.5 µM"}, {"measurement": "Potency", "setting": "[1]", "value": "inconclusive [inhibitor, single point]"}, {"measurement": "Potency", "setting": "[7]", "value": "inconclusive [inhibitor, single point]"}, {"measurement": "Potency", "setting": "[3]", "value": "inconclusive [inhibitor, single point]"}]}, {"smiles": "CCOC(=O)c1ccc(N2C(=O)c3n[nH]c(-c4cccs4)c3C2c2ccc(C(C)(C)C)cc2)cc1", "note": "(stereo unspecified)", "values": [{"measurement": "Potency", "setting": "Furin (Homo sapiens)", "value": "inconclusive [inhibitor, partial curve]"}, {"measurement": "Potency", "setting": "[8]", "value": "inconclusive [inhibitor, full curve, poor fit]"}, {"measurement": "Potency", "setting": "[9]", "value": "active: 15.8 µM"}, {"measurement": "Potency", "setting": "[2]", "value": "inactive"}, {"measurement": "Potency", "setting": "[7]", "value": "inconclusive [inhibitor, partial curve, poor fit]"}, {"measurement": "Potency", "setting": "[3]", "value": "inconclusive [inhibitor, single point]"}]}, {"smiles": "Cc1ccc(S(=O)(=O)Nc2cc(SCC(=O)O)c(O)c3ccccc23)cc1[N+](=O)[O-]", "values": [{"measurement": "Potency", "setting": "Furin (Homo sapiens)", "value": "inconclusive [inhibitor, single point]"}, {"measurement": "Potency", "setting": "[8]", "value": "inactive"}, {"measurement": "activity change, negative = inhibition", "setting": "[7]", "value": "inactive: -280% [at 100 µM]"}, {"measurement": "Potency", "setting": "[10]", "value": "inconclusive [cytotoxic, partial curve, poor fit]"}, {"measurement": "Potency", "setting": "[11]", "value": "inconclusive [cytotoxic, single point]"}, {"measurement": "Potency", "setting": "[3]", "value": "inconclusive [inhibitor, full curve]"}]}, {"smiles": "O=C(CNC(=O)c1ccc(Cl)cc1)OCc1cc(=O)n2nc(C3CCCCC3)sc2n1", "values": [{"measurement": "Potency", "setting": "Furin (Homo sapiens)", "value": "inactive"}, {"measurement": "Potency", "setting": "[1]", "value": "inactive"}, {"measurement": "activity change, negative = inhibition", "setting": "[3]", "value": "inactive: -10.6% [at 1.74 µM]"}]}, {"smiles": "O=C(O)Cn1nnc(-c2ccc(OCc3cccc(C(F)(F)F)c3)cc2)n1", "values": [{"measurement": "Potency", "setting": "Furin (Homo sapiens)", "value": "inactive"}, {"measurement": "Potency", "setting": "[8]", "value": "inactive"}, {"measurement": "Potency", "setting": "[2]", "value": "inconclusive [inhibitor, partial curve]"}]}, {"smiles": "O=C(OCc1cc(=O)n2nc(C3CC3)sc2n1)c1ccc(NC(=O)c2ccccc2F)cc1", "values": [{"measurement": "Potency", "setting": "Furin (Homo sapiens)", "value": "inconclusive [inhibitor, partial curve]"}, {"measurement": "Potency", "setting": "[1]", "value": "inconclusive [inhibitor, single point]"}, {"measurement": "Potency", "setting": "[2]", "value": "inactive"}, {"measurement": "Potency", "setting": "[7]", "value": "inactive"}]}]}
